Reference: PubChem BioAssay AID651820 (National Center for Advancing Translational Sciences (NCATS), 2012)
Hit rate of the full screen: of about 340,000 compounds, about 12,000 (3.5%) were called active. Inconclusive results, whose numbers are uncertain, are shown with a selection of clear calls. Calls follow the shape of the dose curve; as a rule, active = well fitted inhibition curve with a large enough effect; inconclusive = small, poorly fitted or top-dose-only effect, or another doubt; inactive = no such curve, though single readings can be large or run the other way. Potencies of inconclusive entries are left out as doubtful fits.
Potency is read from the fitted curve at half-maximal effect; tags tell the direction and shape of the fitted curve.

Experiment: qHTS Assay for Inhibitors of Hepatitis C Virus (HCV)
Conditions: Huh7.5.1 HCVcc-Cre (HCVcc is cell-culture hepatitis C virus) infection, luciferase reporter, 44 h; series mostly up to 41.8 µM
Outline: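 Antiviral activity was scored by luciferase reporter output from cells infected with HCVcc-Cre (~0.5 moi) in presence of compound, 44 h infection period, cells seeded 1,000/well 4 h prior.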
In the case of `Cc1nnc(SCC(=O)c2ccc(S(=O)(=O)N3CCOCC3)cc2)n1-c1ccccc1`, the Potency is reported as “inactive”.
In the case of `COc1cc(CNCCN2CCOCC2)ccc1OCc1cccc(Cl)c1`, the Potency is reported as active: 8.91 µM.
In the case of `COc1ccc(/C=C/C(=O)NC(=S)NNC(=O)c2cnccn2)cc1`, the Potency is reported as inconclusive [inhibitor, partial curve].
In the case of `Cn1c(SCC(=O)N2CCc3ccccc32)nc2cccnc21`, the Potency is reported as inconclusive [inhibitor, single point].
With `Cc1ccc(-c2nc(NCCN3CCOCC3)c3ccccc3n2)cc1` the Potency was “inactive”.
For `O=C(Nc1ccc(C2CC2(Cl)Cl)cc1)c1cccc([N+](=O)[O-])c1` (stereo unspecified), the Potency was inconclusive [inhibitor, single point].
With `Cc1cc2cc(C(c3nnnn3C3CCCC3)N(Cc3cccnc3)Cc3ccco3)c(=O)[nH]c2cc1C` (stereo unspecified) the Potency was “inactive”.
With `COc1ccc(NC(=O)CSCC(=O)Nc2ccc(C)c(S(=O)(=O)N3CCCCCC3)c2)cc1` the Potency was inconclusive [inhibitor, partial curve].
For `COc1ccccc1C1C(C#N)=C(N)N(c2cccnc2)C2=C1C(=O)CC(C)(C)C2` (stereo unspecified), the Potency was “inactive”.
In the case of `O=C(NC(Cc1ccccc1)C(=O)O)C1CCN(S(=O)(=O)c2ccccc2C(F)(F)F)CC1` (stereo unspecified), the Potency is reported as “inactive”.
In the case of `Cc1cc(/C=C(/C#N)C(=O)Nc2ccccc2)c(C)n1-c1cccnc1`, the Potency is reported as inconclusive [inhibitor, full curve].
In the case of `Cc1ccc2nc(CCl)[n+]([O-])c(-c3ccccc3)c2c1`, the Potency is reported as inconclusive [inhibitor, single point].
With `Cc1ccccc1CN1C(=O)c2ccccc2S1(=O)=O` the Potency was “inactive”.
In the case of `COc1ccc(NC(=O)c2cncc(Br)c2)cc1S(=O)(=O)N1CCCCC1`, the Potency is reported as inconclusive [inhibitor, partial curve, poor fit].
For `CC(=O)c1c(C)n(-c2ccc(N(C)C)cc2)c2ccc(OCC(N)=O)cc12`, the Potency was inconclusive [inhibitor, single point].
For `O=C(c1ccccc1F)N(Cc1nc2ccccc2c(=O)[nH]1)C1CCCC1`, the Potency was inconclusive [inhibitor, single point].
In the case of `CCOC(=O)Cc1cc(=O)n2[nH]c(-c3ccccc3)cc2n1`, the Potency is reported as “inactive”.
For `Cc1ccc(O)c(C(=O)c2cnn(C(=O)COc3ccc(Cl)cc3)c2)c1`, the Potency was “inactive”.
For `CCCNC(=O)c1ccc2snnc2c1`, the Potency was “inactive”.
With `Cc1ccc2c(Cl)c(C)c(N3CCCCC3)nc2n1` the Potency was inconclusive [inhibitor, single point].
For `Cc1ccc(-c2cc(-c3ccc(C)cc3)[n+](C)o2)cc1`, the Potency was active: 8.91 µM.
